# Laboratory results: the supplement of paper PMC12217912
# This is one part of the list. Sequences were assembled here from the parent chain. Inactive controls read about 0.05.
# B1: TEV protease; numbered along this chain (parent)
# chain: MGESLFKGPRDYNPISSSICHLTNESDGHTTSLYGIGFGPFIITNKHLFRRNNGTLVVQSLHGVFKVKDTTTLQQHLVDGRDMIIIRMPKDFPPFPQKLKFREPQREERICLVTTNFQTKSMSSMVSDTSCTFPSGDGIFWKHWIQTKDGQCGSPLVSTRDGFIVGIHSASNFTNTNNYFTSVPKNFMELLTNQEAQQWVSGWRLNADSVLWGGHKVFMVKPEEPFQPVKEATQL
# Variants of: B1
# Assay: raw area under fraction-flipped curve 0-4 h after induction (AUC4h, not background-subtracted), DNA-recorder readout of cleavage of the substrate (dimensionless); higher = more cleavage of the substrate by the protease variant
# Settings: temperature: 34 °C; time window: 0-4 h after rhamnose induction
# Procedure: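 In vivo DNA recorder in E. coli TOP10(DE3) ΔrhaA at 34 °C. Each TEVp single-site mutant (parent TEVp 0) is paired with a single-site variant of the 7-mer TEVs (canonical ENLYFQ|S). The substrate sits between flexible linkers in a Bxb1-sfGFP-TEVs-SsrA fusion, so cleavage stabilises Bxb1 and speeds flipping of a recombination array, read by NGS. The value is the raw area under the fraction-flipped curve over 0-4 h after rhamnose induction (AUC4h), with ≥20 reads per time point. It is not background-subtracted; inactive controls average about 0.047.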
# 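Also: Bxb1 expression induced with 0.2% (w/v) L-rhamnose at OD600 near 0.5, cultures sampled hourly, flipped fraction per protease–substrate barcode pair counted by paired-end Illumina sequencing.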
Variant,area with substrate ANLYFQS,area with substrate CNLYFQS,area with substrate DNLYFQS,area with substrate HNLYFQS,area with substrate INLYFQS,area with substrate KNLYFQS,area with substrate NNLYFQS,area with substrate PNLYFQS,area with substrate QNLYFQS,area with substrate RNLYFQS,area with substrate WNLYFQS,area with substrate YNLYFQS,area with substrate FNLYFQS,area with substrate GNLYFQS,area with substrate MNLYFQS,area with substrate SNLYFQS,area with substrate TNLYFQS,area with substrate VNLYFQS,area with substrate LNLYFQS
MGESLFKGPRDYNPISSSICHLTNESPGHTTSLYGIGFGPFIITNKHLFRRNNGTLVVQSLHGVFKVKDTTTLQQHLVDGRDMIIIRMPKDFPPFPQKLKFREPQREERICLVTTNFQTKSMSSMVSDTSCTFPSGDGIFWKHWIQTKDGQCGSPLVSTRDGFIVGIHSASNFTNTNNYFTSVPKNFMELLTNQEAQQWVSGWRLNADSVLWGGHKVFMVKPEEPFQPVKEATQL [D27P],0.0694,0.0631,0.0736,0.0594,0.0091,0.0565,0.0654,0.0578,0.0621,0.0539,0.0548,0.0129,,,,,,,
MGESLFKGPRDYNPISSSICHLTNESDGHTTSLYGIGFAPFIITNKHLFRRNNGTLVVQSLHGVFKVKDTTTLQQHLVDGRDMIIIRMPKDFPPFPQKLKFREPQREERICLVTTNFQTKSMSSMVSDTSCTFPSGDGIFWKHWIQTKDGQCGSPLVSTRDGFIVGIHSASNFTNTNNYFTSVPKNFMELLTNQEAQQWVSGWRLNADSVLWGGHKVFMVKPEEPFQPVKEATQL [G39A],0.0557,0.0093,0.0312,0.0701,0.0508,,0.0237,0.0356,,,0.0387,0.0614,0.0546,0.044,0.0435,0.0527,0.0329,0.0327,
MGESLFKGPRDYNPISSSICHLTNESDGHTESLYGIGFGPFIITNKHLFRRNNGTLVVQSLHGVFKVKDTTTLQQHLVDGRDMIIIRMPKDFPPFPQKLKFREPQREERICLVTTNFQTKSMSSMVSDTSCTFPSGDGIFWKHWIQTKDGQCGSPLVSTRDGFIVGIHSASNFTNTNNYFTSVPKNFMELLTNQEAQQWVSGWRLNADSVLWGGHKVFMVKPEEPFQPVKEATQL [T31E],0.0669,0.0587,0.103,0.0659,0.0656,,0.0565,0.0629,,0.0515,0.0658,0.0545,0.0647,,0.0655,0.066,0.0664,0.0534,0.0717
MGESLFKGPRDYNPISSSICHLTNESDGHTTPLYGIGFGPFIITNKHLFRRNNGTLVVQSLHGVFKVKDTTTLQQHLVDGRDMIIIRMPKDFPPFPQKLKFREPQREERICLVTTNFQTKSMSSMVSDTSCTFPSGDGIFWKHWIQTKDGQCGSPLVSTRDGFIVGIHSASNFTNTNNYFTSVPKNFMELLTNQEAQQWVSGWRLNADSVLWGGHKVFMVKPEEPFQPVKEATQL [S32P],0.0469,0.0632,,0.0629,0.0558,0.0712,0.0639,0.0505,,,0.0584,0.0574,,,0.0612,0.0664,0.0586,0.0459,
MGESLFKGPRDYNPISSSICHLTNESDGHTTELYGIGFGPFIITNKHLFRRNNGTLVVQSLHGVFKVKDTTTLQQHLVDGRDMIIIRMPKDFPPFPQKLKFREPQREERICLVTTNFQTKSMSSMVSDTSCTFPSGDGIFWKHWIQTKDGQCGSPLVSTRDGFIVGIHSASNFTNTNNYFTSVPKNFMELLTNQEAQQWVSGWRLNADSVLWGGHKVFMVKPEEPFQPVKEATQL [S32E],0.0644,0.0616,0.0638,0.0669,0.0671,0.0666,,,0.0811,0.0561,0.061,0.0612,0.0553,,0.057,0.0714,0.0614,0.0805,0.0515
MGESLFKGPRDYNPISSSICHLTNESDGHTTGLYGIGFGPFIITNKHLFRRNNGTLVVQSLHGVFKVKDTTTLQQHLVDGRDMIIIRMPKDFPPFPQKLKFREPQREERICLVTTNFQTKSMSSMVSDTSCTFPSGDGIFWKHWIQTKDGQCGSPLVSTRDGFIVGIHSASNFTNTNNYFTSVPKNFMELLTNQEAQQWVSGWRLNADSVLWGGHKVFMVKPEEPFQPVKEATQL [S32G],0.0794,0.0711,0.0751,0.0634,0.0708,0.0498,,0.0586,0.0693,,0.0639,,0.0762,,0.0654,0.0652,0.0643,,0.0727
MGESLFKGPRDYNPISSSICHLTNESDGHTTYLYGIGFGPFIITNKHLFRRNNGTLVVQSLHGVFKVKDTTTLQQHLVDGRDMIIIRMPKDFPPFPQKLKFREPQREERICLVTTNFQTKSMSSMVSDTSCTFPSGDGIFWKHWIQTKDGQCGSPLVSTRDGFIVGIHSASNFTNTNNYFTSVPKNFMELLTNQEAQQWVSGWRLNADSVLWGGHKVFMVKPEEPFQPVKEATQL [S32Y],0.0493,0.0638,0.08,0.066,0.0625,0.0727,0.0708,0.0645,,,0.0635,0.0618,0.0527,0.0683,0.0675,0.0688,0.0531,0.0536,0.0595
MGESLFKGPRDYNPISSSICHLTNESDGHTTLLYGIGFGPFIITNKHLFRRNNGTLVVQSLHGVFKVKDTTTLQQHLVDGRDMIIIRMPKDFPPFPQKLKFREPQREERICLVTTNFQTKSMSSMVSDTSCTFPSGDGIFWKHWIQTKDGQCGSPLVSTRDGFIVGIHSASNFTNTNNYFTSVPKNFMELLTNQEAQQWVSGWRLNADSVLWGGHKVFMVKPEEPFQPVKEATQL [S32L],0.0656,0.102,0.0789,0.0621,0.0606,,,,0.0662,0.0584,0.0636,0.061,0.0667,0.0834,0.0644,0.0638,0.0727,0.0597,0.0738
MGESLFKGPRDYNPISSSICHLTNESDGHTTWLYGIGFGPFIITNKHLFRRNNGTLVVQSLHGVFKVKDTTTLQQHLVDGRDMIIIRMPKDFPPFPQKLKFREPQREERICLVTTNFQTKSMSSMVSDTSCTFPSGDGIFWKHWIQTKDGQCGSPLVSTRDGFIVGIHSASNFTNTNNYFTSVPKNFMELLTNQEAQQWVSGWRLNADSVLWGGHKVFMVKPEEPFQPVKEATQL [S32W],0.0675,0.0487,0.0847,0.0597,,0.0596,0.06,0.0716,,,0.0678,0.0559,,,,,0.0627,0.0598,0.0665
